± gives the standard deviation of the averaged measurements. Some of the results follow.
Test system: PfAP2-LT AP2 domain (GST-tagged)
Assay: gcPBM binding intensity (ln(normalized median fluorescence intensity)); higher = stronger DNA binding
In short: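 For binding intensity, the highest Masliner-normalised natural-log median intensity across replicate spots of either probe orientation was taken. Protein bound to the array was stained with Alexa488 anti-GST antibody and scanned at 488 nm. The protein, GST-tagged P. falciparum DNA-binding domains from E. coli at about 25 μg on average, had been applied for 1 h to an Agilent 4 × 180k array of primer-extended double-stranded 36-bp intergenic genomic probes and negative controls.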

Sequence	gcPBM binding intensity (ln)
GAAGGAAATAATAGTAGTACAAATGGTAAGAAATAT [XGTACX_site5845]	9.31 ± 0.59
TTTACAATATAAAATACACACACACTAACATATATT [CACACA_site9231]	9.59 ± 0.028
TATATAAATGTTATCACACACTCACGTTTGACAAAA [CACACA_site6468]	8.83 ± 0.45
AATATAATACAATATTGTACATAATATAAATTAAAA [XGTACX_site4064]	8.83 ± 0.55
ATTATATTTATGTTGGTGCATTATACATGAAATTTA	8.68 ± 0.4
ATGTCATAAATGTACGCACACATACATAAACATATA [CACACA_site4530]	9.31 ± 0.28
TTCATTTTAATTTCCAGTACACATATATATACATAT [XGTACX_site558]	8.96 ± 0.5
ATTTATTTCTATAATACACACAAATATCTTAATTAA [CACACA_site7801]	8.69 ± 0.52
GGTAATTATTTTGGTTGTACTCAAATATATAATATT [XGTACX_site291]	8.89 ± 0.23
AAACATAAAGAAAAAAAAAATATATATTTATTTATT [GTGCAC_negctrl_site357]	8.46 ± 0.52
TATATGTTATATTGGACACACACAATAAACATTATG [CACACA_site8480]	9.21 ± 0.38
ATATATTAACAAAAGGTGCTTTTGGCAAAGTATAAT	8.95 ± 0.44
ATAAAAATGGTGTTAACACACACATATATATATATA [CACACA_site8089]	9.64 ± 0.17
TTATTTAAATATTGATGTACTCTCCTTATTATAATA [XGTACX_site1240]	8.57 ± 0.52
TTAATTAAAATTTATACATGCATAAAAGAAATACAC [TGCATGCA_site537]	8.87 ± 0.46
ATTACATGTTACTTAACACACATCTGGTGAAATAAT [CACACA_site171]	8.93 ± 0.34
ATTTTTTTCTTTTCTTTTTTCTTTTTTTTTTTTGGT [CACACA_negctrl_site1146]	8.61 ± 0.7
GTAATGAAACATTGCACACATATAATAATATAATAT [CACACA_site1422]	9.26 ± 0.35
TTGTATACATAAAATGGTACAGAATATATAATTCTA [XGTACX_site7236]	8.63 ± 0.4
TTTAAGAGTTGCACACGTACAAAAAAAAAAAAAAAA [XGTACX_site7406]	8.76 ± 0.49
ATAAGATGATGGAACTGTAATATATATATATATATA [CACACA_negctrl_site839]	9.39 ± 0.19
GTATACCAACATATTATACACACCTTTATATTTTTT [CACACA_site2153]	8.91 ± 0.45

Sequence	gcPBM binding intensity (ln)
TGCAACAAAATAAACACACACACACCCCCACAAAAA [CACACA_site3388]	10.36 ± 0.057
AATAAAAAAATAAAATGTACATACAAATAAATAAAT [XGTACX_site5153]	9.03 ± 0.48
TATTTTAATGAAGCATTTAAGGGAAAAAAAAAAAAA [TGCATGCA_negctrl_site606]	8.21 ± 0.33
TTATACTGTTTCAGAAAAATAAAGAATGAAAGTATT [XGTACX_negctrl_site230]	8.58 ± 0.44
TTTTTATATTCCCCCAGTACATATATAATAGTAGTA [XGTACX_site7927]	9.08 ± 0.3
AAGTAATACAACACGCACATATATATATATATATAT [GTGCAC_negctrl_site89]	10.3 ± 0.25
TACCTAAATAAATGGACACACACATATATATATATA [CACACA_site8407]	9.79 ± 0.21
TTATAGCCTGTGAAGAGTACATTTTTATTTTTTATT [XGTACX_site4105]	8.66 ± 0.41
TATTTTTAAATATAAAGTACTTATATTAACTACGAA [XGTACX_site1524]	8.27 ± 0.44
ATTTTTTCTGTCTTAATTGGACCCACTGCAAATGGG [CACACA_negctrl_site1158]	8.41 ± 0.48
ATAATACAAAAAAAAAAAAAAAATAAAATAATAAAA [GTGCAC_negctrl_site722]	8.51 ± 0.64
ATATATATGCATATATGTACTTAAAATATAAAGGCA [XGTACX_site3256]	8.9 ± 0.48
TTCATATATTTTAAAGCATGCATTCATCTTATAGTT [TGCATGCA_site800]	8.79 ± 0.41
TTTACGCTATAGGAGAGTACTTATAAAATCCTGTGT [XGTACX_site2364]	8.74 ± 0.52
TATTTTTCCATTGGGGGTACATGTGTTATATTTATT [XGTACX_site5914]	9.63 ± 0.26
TACAAAATATATATGACACACACAAAAAAAGTATAT [CACACA_site8455]	9.47 ± 0.43
AGACGAAAATAATAAAGTACTAAAAAAAAAAAAAAA [XGTACX_site927]	8.56 ± 0.56
AATAAATTATTTATTGCATGTAATATGAATATTTTT [TGCATGCA_site798]	8.51 ± 0.37
ATATATTTTATTCCTATATATATATATATATATATA [GTGCAC_negctrl_site556]	9.11 ± 0.19
TAATGTATGAAATAAACACACAAGTAAGTACATAAA [CACACA_site2451]	9.19 ± 0.36
CATTATGTCATAAATGCACACATATACATTGTTTTG [CACACA_site8118]	9.21 ± 0.32
AGAAAAAAAATATACACACATACGATCATACATATG [CACACA_site2171]	9.24 ± 0.47

Sequence	gcPBM binding intensity (ln)
ACCTCTTTGAAATATACACACTAAACATATCAACTT [CACACA_site5372]	9.04 ± 0.4
TACATAGAGTTTGTTTGTACTCATATGCGTAAATTC [XGTACX_site4810]	8.75 ± 0.41
TCTGTAGTTTTTTACAGTACTTTTAGGTAATACATA [XGTACX_site7417]	8.59 ± 0.4
AAAACACCCAAACACACACACACATATATATATATA [CACACA_site9119]	10.2 ± 0.35
TTCTTGTATTTTCATAGTACATATAATGTCGTGTTA [XGTACX_site7714]	9.02 ± 0.43
TTTCTTTTTTTTTTTTTTTCTGGCTTTTTCTCTTTT [TGCATGCA_negctrl_site599]	8.69 ± 0.49
TTTTTATTTTTTTTATGTACACAAATGATATACATA [XGTACX_site5910]	8.6 ± 0.51
AGGATACACGGACACACACACATATAGATTTATATA [CACACA_site6552]	9.78 ± 0.51
TTCTGAACAAAATTATATATTTATTTTTATTTTCAT [CACACA_negctrl_site422]	8.48 ± 0.5
ATTATTTTTCTATGTGTGCACGTGTGGAATGTGTCT [GTGCAC_site9507]	9.38 ± 0.33
TATATTACTTAAAATACACACCATGGAAAAGTTTTA [CACACA_site5443]	8.74 ± 0.37
ATATTTATATTTGTATGTACTTAAGTTTGTATGTAT [XGTACX_site3608]	9.04 ± 0.43
ATATATTAGGGCAAATTTTCTGACATTACATCAGTC [CACACA_negctrl_site1166]	8.66 ± 0.4
TATTTTTCTTTTTTCTGTACTCACACAAATAGAAGG [XGTACX_site7329]	8.57 ± 0.39
CGTAAATTTTTTAAAAGTACAAAAAGATACGAGAAA [XGTACX_site8722]	8.58 ± 0.48
TAAACAAATAAATAAACACACAATATATGTATATAT [CACACA_site3803]	9.05 ± 0.38
TGTGTTAAATGTAATAGTGAATAAATAATTTTAACA [TGCATGCA_negctrl_site161]	8.53 ± 0.55
AAAATGAATATAATGACGCACACTTAAAATTGTTAA [CACACA_site2509]	8.92 ± 0.44
TTTTTTAGAAAAAGTTGTACTTTTTTTTTTTTTTTT [XGTACX_site535]	8.14 ± 0.53
ATATATATAATATAGGTGCACTACTTATTTAAAAAA	8.76 ± 0.43
TAAAAATGTAGACACACACACATATATATATTTAAT [CACACA_site1528]	9.55 ± 0.28
TTAATAACAAAATAAACACACATATATAAATCCACA [CACACA_site1590]	9.09 ± 0.38

Sequence	gcPBM binding intensity (ln)
AAATAATTAGCTATTTGTACATATATACATATTTAT [XGTACX_site4652]	8.97 ± 0.46
ACTACCTATATTTAAGCATGCAAAAAATAAAAATAT [TGCATGCA_site238]	8.89 ± 0.41
ATAAATTGTTCTTTTTGTGTAAACAGAATATTAAAA [CACACA_negctrl_site1022]	8.31 ± 0.45
TTAATTTGTTCTTACACACACATATATATATATTTA [CACACA_site1185]	9.18 ± 0.37
ATTTTTTTTTTTATTTTCTTTGAGATTATCTTAATT [CACACA_negctrl_site1209]	8.61 ± 0.47
ATATTTTAAATGTTATGTACACATTTGTTGTTTACA [XGTACX_site7353]	8.89 ± 0.45
AATATTATTATTATTACACACACAATTATATTTACC [CACACA_site8061]	9.35 ± 0.38
TATATATATACATAATGTACATTTTATAAATTTACA [XGTACX_site5283]	8.62 ± 0.44
AAATAACACATATATACACACATATAAATATAATAT [CACACA_site2692]	9.29 ± 0.34
AAAAAAAAAAAAAAAATACACACGTGAATGTATTGT [CACACA_site1320]	9.12 ± 0.31
AAAAAACTTATAATCACACATATGATTAAATATTAA [CACACA_site4956]	8.62 ± 0.54
ATAGGACCTATGTGCCCATGGGTACATTAAAAAAAA [CACACA_negctrl_site1465]	8.87 ± 0.6
AATTATTTTTTGTATGAACACACAACTTAATTATGA [CACACA_site8774]	8.87 ± 0.45
TTGAATGTAGTTAAATGTACATGTAATATATAAAAA [XGTACX_site1250]	8.85 ± 0.5
TTTGTTTTAAATCGAAGTACACATAATTATATTTTA [XGTACX_site1541]	8.35 ± 0.4
ATACAACATATATATACACACATATAATAATAATAA [CACACA_site3367]	9.26 ± 0.38
AAACCAATAAAAAACTGTACAAAAATTATATGAGAT [XGTACX_site1269]	8.95 ± 0.45
TAATATAAAGGAAAAGAAAAGAAAAGAATATACAAT [CACACA_negctrl_site1369]	8.69 ± 0.52
GAATAAAAAATATATGTGCACATATAAACTTAAAAT [GTGCAC_site9554]	9.19 ± 0.57
AAAAAAAAAAAAAAAAAAAAAAAAATCACACATTGG [TGCATGCA_negctrl_site412]	9.05 ± 0.28
TTTTGGATGTATTATACATGCATATTATTATAATAT [TGCATGCA_site997]	8.62 ± 0.42
ATATATCTACAAATATGTACACACACACATATATAT [XGTACX_site1075]	9.74 ± 0.38

Reference: the supplement of paper PMC11417369
